According to PubChem BioAssay AID1030 (National Center for Advancing Translational Sciences (NCATS), 2008):
Screen size: about 220,000 compounds; about 16,000 (7.3%) were called active. This list was built around the results that the source calls inconclusive (neither active nor inactive); the mix of calls is not that of the screen. The call rests on the fitted dose curve; in most records, active means well fitted inhibition curve with a large enough effect (not every such curve was filed as active); inconclusive means small, poorly fitted or top-dose-only effect, or another doubt; inactive means no such curve, though single readings can be large or run the other way. A potency beside an inconclusive call is a rough fit, not a confirmed value.

Target: Aldehyde dehydrogenase 1A1 (Homo sapiens) (UniProt P00352)
Experiment: qHTS Assay for Inhibitors of Aldehyde Dehydrogenase 1 (ALDH1A1);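 on activity, negative = inhibition: plate controls were no enzyme wells and a reference inhibitor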
Settings: Purified ALDH1A1, NADH fluorescence, propionaldehyde substrate; series mostly up to 75.3 µM; activity, negative = inhibition: at the top concentration
Potency means the concentration at half of the fitted maximal effect; tags describe the fitted curve by direction and shape.

UniProt P00352, sequence (P00352 whole entry, looked up): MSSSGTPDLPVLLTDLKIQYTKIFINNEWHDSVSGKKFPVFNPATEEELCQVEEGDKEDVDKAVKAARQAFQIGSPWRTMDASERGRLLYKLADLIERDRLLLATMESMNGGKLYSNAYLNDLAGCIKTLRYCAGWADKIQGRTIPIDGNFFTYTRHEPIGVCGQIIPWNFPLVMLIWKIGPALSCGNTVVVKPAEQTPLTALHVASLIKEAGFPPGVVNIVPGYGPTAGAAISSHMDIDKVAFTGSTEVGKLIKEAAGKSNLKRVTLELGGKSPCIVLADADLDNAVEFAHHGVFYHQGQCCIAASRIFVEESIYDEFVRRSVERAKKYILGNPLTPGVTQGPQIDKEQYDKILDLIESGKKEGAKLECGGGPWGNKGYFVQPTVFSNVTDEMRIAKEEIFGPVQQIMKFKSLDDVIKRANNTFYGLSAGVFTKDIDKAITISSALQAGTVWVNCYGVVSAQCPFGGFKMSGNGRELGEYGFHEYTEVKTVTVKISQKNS

Potency, inconclusive:
Cc1ccc2cc(C#N)c(N3CCCN(S(=O)(=O)c4ccc(F)cc4)CC3)nc2c1 39.8 µM [inhibitor, single point]
O=C(NNc1cccc(Cl)n1)Nc1ccc(F)cc1 12.6 µM [inhibitor, partial curve]
COC(=O)c1nn(-c2ccc(OC)cc2)c(=O)cc1O 22.4 µM [inhibitor, single point]
CCCCc1cc(=O)oc2cc(C)cc(OC(C)C(=O)O)c12 (stereo not drawn) 28.2 µM [inhibitor, partial curve]
CCN(c1ccccc1)S(=O)(=O)c1ccc(OC)c(NC(=O)CNC)c1 35.5 µM [inhibitor, single point]
COc1ccc(-c2nc(-c3ccccc3)c(Nc3ccc4ccccc4c3)o2)cc1 1.26 µM [inhibitor, full curve]
COc1ccc(N=C2C(=O)Nc3ccccc32)cc1 39.8 µM [inhibitor, partial curve, poor fit]
COCCn1c(=S)[nH]c2cc(C(=O)N3CCN(Cc4ccc5c(c4)OCO5)CC3)ccc2c1=O 22.4 µM [inhibitor, partial curve]
CC(OC(=O)c1oc2ccccc2c1COc1ccccc1)C(=O)NC(N)=O (stereo not drawn) 39.8 µM [inhibitor, single point]
CC(C)CNC(=O)c1c(N)n(/N=C/c2cccnc2)c2nc3ccccc3nc12 8.91 µM [inhibitor, single point]
O=C(Nc1ccccc1N1CCOCC1)c1ccc(Br)o1 35.5 µM [inhibitor, single point]
Cc1cccc2sc(NC(=O)c3ccc(Cl)s3)nc12 35.5 µM [inhibitor, partial curve]
O=C(CCS(=O)(=O)c1ccc(Cl)cc1)NCCN1C(=O)S/C(=C\c2ccccc2F)C1=O 28.2 µM [inhibitor, single point]
COc1ccc(-n2ncc3c(=O)n(CC(=O)Nc4ccc(S(=O)(=O)N5CCOCC5)cc4)cnc32)cc1 35.5 µM [inhibitor, single point]
O=C(Cc1ccc(Cl)c(Cl)c1)OCCN1CCCC1 22.4 µM [inhibitor, single point]
Cc1ccc(-n2c(SCC(=O)Nc3cccc(S(=O)(=O)NC4=NCCCCC4)c3)nc3ccccc3c2=O)cc1 31.6 µM [inhibitor, single point]
O=C(CSc1nnc(-c2ccco2)n1-c1ccccc1)N1CCN(C(=O)c2ccco2)CC1 39.8 µM [inhibitor, single point]
O=[N+]([O-])c1cc(C(F)(F)F)cc([N+](=O)[O-])c1NCCNC(=S)Nc1cccc(F)c1 0.0562 µM [inhibitor, full curve, poor fit]
Cc1cc(NS(=O)(=O)c2ccc(NC(=S)NC(=O)c3ccc(F)cc3Cl)cc2)no1 39.8 µM [inhibitor, single point]
COc1ccc(-c2ccnc(SCC(=O)c3ccc(OC)c(OC)c3)n2)cc1 39.8 µM [inhibitor, single point]
COCCNc1nnnc2c1sc1nc(N3CCOCC3)c3c(c12)CC(C)(C)OC3 3.98 µM [inhibitor, full curve]
N#C/C(=C\NC(=S)c1ccncc1)c1nc2ccccc2s1 7.08 µM [inhibitor, single point]
Cc1ccc(NCc2n[nH]c(=S)n2Cc2ccccc2)cc1Cl 39.8 µM [inhibitor, single point]
O=C(CSCc1ccccc1Cl)NN1C(=O)c2ccccc2C1=O 22.4 µM [inhibitor, single point]
CCOc1ccc(C(C)=O)cc1CSc1nc2nc(C)cc(C)n2n1 17.8 µM [inhibitor, partial curve]
c1coc(CN2CCN(C(c3cccs3)c3nnnn3C3CCCC3)CC2)c1 (stereo not drawn) 39.8 µM [inhibitor, single point]
Cc1ccc(C)c(NC(=O)C(Sc2nnc(-c3cccs3)o2)c2ccccc2)c1 (stereo not drawn) 3.98 µM [inhibitor, single point]
O=C(NC(=S)NC(c1ccccc1)c1ccncc1)c1ccccc1 (stereo not drawn) 39.8 µM [inhibitor, single point]
CCNc1ccc(C(=O)O)cc1N 35.5 µM [inhibitor, single point]
O=C(CCCN1C(=O)c2cccc3cccc(c23)C1=O)N1CCc2ccccc2C1 25.1 µM [inhibitor, single point]
COc1ccc(CN2C(=O)CN(C3CCCCCC3)C(=O)C2c2ccc(F)cc2)cc1 (stereo not drawn) 44.7 µM [inhibitor, single point]
CCNc1ncc2nc(-c3cc(F)cc(F)c3)c(=O)n(-c3ccccc3)c2n1 2.51 µM [inhibitor, full curve]
COc1ccc(NC(=S)N2CCN(C(c3ccccc3)c3ccccc3)CC2)cc1OC 25.1 µM [inhibitor, single point]
O=C1NC(CCc2ccccc2)C(=O)N1Cc1ccccc1Cl (stereo not drawn) 22.4 µM [inhibitor, single point]
CC(C)(C)N1NC2(CCCCC2)NC1=S 39.8 µM [inhibitor, single point]
CCN1CCCC1CNC(=O)c1cc2c(C)nc3ccccc3c2o1 (stereo not drawn) 35.5 µM [inhibitor, single point]
CCOC(=O)Cc1csc(NC(=O)c2ccc(S(=O)(=O)N3CCOCC3)cc2)n1 39.8 µM [inhibitor, single point]
O=C(O)C1CSC(c2ccco2)N1 (stereo not drawn) 37.7 µM [inhibitor, single point]
COCCn1nnnc1C(C(C)C)N1CCC(Cc2ccccc2)CC1 (stereo not drawn) 25.1 µM [inhibitor, single point]
Cc1cc(C)c(C)c(S(=O)(=O)NCC(=O)Nc2sc3c(c2C(N)=O)CCCC3)c1C 14.1 µM [inhibitor, partial curve]
Cc1cc(C(=O)CSc2nnnn2C)c(C)n1-c1cccc(F)c1 22.4 µM [inhibitor, single point]
CC(C)Cc1nnc(NS(=O)(=O)c2ccc(Cl)cc2)s1 8.91 µM [inhibitor, partial curve]
CCc1nc(N2CCN(C(=O)c3ccccc3)CC2)c(C#N)c2c1COC(C)(C)C2 31.6 µM [inhibitor, partial curve]

Potency, active:
O=[N+]([O-])c1cc(S(=O)(=O)Nc2ccccc2)ccc1N1CCN(c2ccc(O)cc2)CC1 31.6 µM
CCCc1nc2c([nH]1)C(c1cccnc1)C(C#N)=C(N)O2 (stereo not drawn) 7.94 µM
CC(=O)Nc1ccc(OCC(O)CNC2CCCC2)cc1 (stereo not drawn) 17.8 µM
Cc1cc(C)c(C#N)c(SCS(=O)Cc2ccccc2)n1 (stereo not drawn) 8.91 µM
CC(C)N(C(=O)COC(=O)[C@@H]1CC(O)CN1S(=O)(=O)c1ccc(C(C)(C)C)cc1)C(C)C (stereo partly drawn) 8.91 µM
CC(C)NC(=S)N1CCN(Cc2ccc3c(c2)OCO3)CC1 22.4 µM
Cc1ccc(-c2nn3c(C)nnc3s2)cc1NC(=O)c1ccc(OC(C)C)cc1 12.6 µM
CCc1cc(=O)oc2cc(C)cc(O)c12 4.47 µM
Cn1c2ccccc2c2nn(-c3ccccc3)c(=O)cc21 12.6 µM
COc1ccc(N=C2SC(CC(=O)Nc3ccccc3)C(=O)N2Cc2ccccn2)cc1 (stereo not drawn) 2.24 µM
Cc1ccc2[nH]c(=O)c(CN(Cc3ccc4c(c3)OCO4)Cc3nnnn3C3CCCC3)cc2c1 20 µM
C=CCn1c(-c2csc(-c3ccccc3)n2)n[nH]c1=S 0.112 µM
CC(=O)c1cccc(NC(=S)NC(=O)c2cccc(Cl)c2)c1 20 µM

activity, negative = inhibition, inactive:
COC(=O)C1=NN(C(C)(C)CC(C)=O)C2C(=O)N(C3CCCCC3)C(=O)C12 (stereo not drawn) -5.84%
CCOc1ccc(NC(=S)N/N=C(\C)Cc2ccc(OC)cc2)cc1 -3.25%
COc1ccc(OC)c(C2NC(=S)NC(C)=C2C(=O)Nc2ccccn2)c1 (stereo not drawn) -3.61%
COC(=O)c1ccc(Oc2ccc3nnc(C)n3n2)cc1 -1.81%
C=CCNC(=O)c1ccc(C)cc1Cl 6.64%
CCOc1ccc(NC(=O)c2ccccc2OCC(=O)c2ccccc2)cc1 -2.18%
Cc1ccc(CN2CCN(/N=C\C=C\c3ccccc3)CC2)cc1 -4.9%
O=C(CCn1c(=O)[nH]c2ccsc2c1=O)Nc1ccc(F)c(F)c1 -8.48%
COc1ccc(C(NC=O)c2cc(OC)c(OC)cc2Br)cc1OC (stereo not drawn) 2.38%
CN(Cc1ccccc1)C(=O)COC(=O)c1cc(NS(=O)(=O)c2cccs2)ccc1O 8.59%
O=C(Nc1ccccc1Cc1ccccc1)c1ccccc1NS(=O)(=O)c1ccc(Cl)s1 -2%
COc1ccc(CC(=O)NCc2nnc(SCC(=O)Nc3ncc(C)s3)n2C)cc1 23.4%
Cn1c(COc2ccccc2)nnc1SCCSc1nnc(COc2ccccc2)n1C 8.59%
Clc1cccc2sc(N3CCCCC3)nc12 -1.81%
O=C(/C=C/c1c(Cl)cccc1Cl)n1cccn1 -6.93%
Cn1c(SCC(=O)NCCNC(=O)CSc2nnc(C(F)(F)F)n2C)nnc1C(F)(F)F 11.2%
Cc1cc(C)c(S(=O)(=O)c2ccc(Cl)cc2C)c(Cl)n1 10.7%
